The list shows a part of the results. The energies were worked out here from pooled read counts, against the library average; single values are noisy.
molecular target: T1, Pho4 (S. cerevisiae) (UniProt P07270); assay: relative binding free energy (BET-seq); higher = weaker binding; settings: reference: library average
T1 sequence: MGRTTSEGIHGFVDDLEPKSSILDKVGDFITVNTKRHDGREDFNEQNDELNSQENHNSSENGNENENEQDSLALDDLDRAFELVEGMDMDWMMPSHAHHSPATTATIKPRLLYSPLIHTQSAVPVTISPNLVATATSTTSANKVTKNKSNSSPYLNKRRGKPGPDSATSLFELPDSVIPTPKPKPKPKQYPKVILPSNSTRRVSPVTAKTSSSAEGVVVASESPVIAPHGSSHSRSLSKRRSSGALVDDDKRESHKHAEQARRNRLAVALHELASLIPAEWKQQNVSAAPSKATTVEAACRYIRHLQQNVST

Relative binding free energy, 0.09 kcal/mol:
TATGTCACGTGTTCTT
TGGGTCACGTGGTGTA
TACAACACGTGGAGGG
TGTGTCACGTGCATTC

Relative binding free energy, 0.29 kcal/mol:
ATGAGCACGTGAATTT
GTACTCACGTGTTTTG
CGGTCCACGTGTGAGT
GTTTACACGTGTGGCT

Relative binding free energy, 0.01 kcal/mol:
CATGGCACGTGTAAGG
ATGTGCACGTGTCAAG

Relative binding free energy, 0.57 kcal/mol:
GGCTTCACGTGAAGAT

Relative binding free energy, -0.18 kcal/mol:
TAGAGCACGTGTGGCT
AAGGACACGTGTTCGG
AGATACACGTGGGGTG
TTGAGCACGTGTCATG
TGTGGCACGTGCGTAA

Relative binding free energy, 0.28 kcal/mol:
GTAGGCACGTGAGTTG

Relative binding free energy, -0.31 kcal/mol:
ATAGGCACGTGGGCAT

Relative binding free energy, 0.21 kcal/mol:
TAACTCACGTGTGTTT
TGACTCACGTGGGATT
TGGGTCACGTGAGTGT
TTTATCACGTGTGTGT
TAGCACACGTGAGGGT

Relative binding free energy, -0.06 kcal/mol:
ATGCACACGTGTTAGT
GAGGGCACGTGCTTAG
TGCAACACGTGTGTGG
ATGAGCACGTGGTTGC
ATGGACACGTGCGTGG

Relative binding free energy, 0.31 kcal/mol:
TTTGTCACGTGATTAT
GAGCTCACGTGGCGGG

Relative binding free energy, 0.07 kcal/mol:
TTTAACACGTGGAGGA
TGGAACACGTGTAGGT
TGTATCACGTGGGGTC
TTGGACACGTGTTCAT
CGGGTCACGTGCGGTA
GATTGCACGTGTAGGC
GCGGGCACGTGTTATA
GGGAGCACGTGGTCCT
GGGGGCACGTGACGTG

Relative binding free energy, 0.35 kcal/mol:
AGGCTCACGTGAATGT

Relative binding free energy, 0.08 kcal/mol:
TGGCGCACGTGTTATA
AGAGTCACGTGGGATC
GAGTACACGTGGTTAT
GAGCACACGTGGGGGG

Relative binding free energy, 0.3 kcal/mol:
TGTTACACGTGATGAA
GGATTCACGTGTGTGC

Relative binding free energy, -0.16 kcal/mol:
ATATGCACGTGCGGTG

Relative binding free energy, -0.05 kcal/mol:
GGTAGCACGTGGGATA

Relative binding free energy, -0.07 kcal/mol:
ACGGTCACGTGGTCGT
TAGTGCACGTGTGCTA
GTTTGCACGTGGCTGT
TTATGCACGTGTGAGC
TTCTGCACGTGGGAGT

Relative binding free energy, 0.17 kcal/mol:
GGATGCACGTGATTGG

Relative binding free energy, 0.05 kcal/mol:
TAGGACACGTGTATAG
TTAGTCACGTGGTAGC
AGCTTCACGTGGGTGG
TATAACACGTGATGGG
AAGGTCACGTGGTGAT
GGGTCCACGTGTAGGC
GTAAACACGTGGTTGT

Relative binding free energy, -0.13 kcal/mol:
AGGGGCACGTGTCAGA
TAGGGCACGTGGTTAC

Relative binding free energy, -0.01 kcal/mol:
TTTGGCACGTGTCTCT

Relative binding free energy, -0.14 kcal/mol:
TTCAGCACGTGGTCTG
AGTAGCACGTGTTCTG
AGCCGCACGTGGTGGG
CGTATCACGTGGGTGA
TTAGGCACGTGTCGAG

Relative binding free energy, 0.34 kcal/mol:
CTACTCACGTGAGGGT
TAAAGCACGTGAGTTA

Relative binding free energy, 0.12 kcal/mol:
AACCTCACGTGGGGGT
GGGTCCACGTGTGATT
ATAATCACGTGGGAAG
AGTAGCACGTGAAAGT
TTTTCCACGTGTTTAG
TTGTGCACGTGTCGGT
AGTTTCACGTGGAGCT

Relative binding free energy, -0.09 kcal/mol:
AAAGTCACGTGGGGCA
TTTGGCACGTGTTAAG
TTAAGCACGTGGCAGG

Relative binding free energy, 0.36 kcal/mol:
AGGTTCACGTGATAAA
GTAGTCACGTGAAGGC

Relative binding free energy, -0.19 kcal/mol:
TAGTGCACGTGGGCTA
AGATACACGTGGGTAG
GGGAGCACGTGGACGT

Relative binding free energy, 0.39 kcal/mol:
TGGATCACGTGATTGT

Relative binding free energy, 0.04 kcal/mol:
GGTTGCACGTGTTTGC
GATTGCACGTGGGTGA
TTGAACACGTGGTACT
GTGCACACGTGGTTGT
TTTTCCACGTGTGCTG
TGATGCACGTGTCGTA
AGGAGCACGTGTTAAG
GTTAGCACGTGGTAGT
ATTAGCACGTGGAAGT

Relative binding free energy, -0.22 kcal/mol:
GTTAGCACGTGGGTTG

Relative binding free energy, 0.13 kcal/mol:
TCGTTCACGTGGGTCG
TATATCACGTGTTAAG
TGAATCACGTGTTTGC
TCGTGCACGTGAAGGT

Relative binding free energy, 0.37 kcal/mol:
TTAATCACGTGAGGAA
TTACTCACGTGATGGA
TGTCTCACGTGATGTT

Relative binding free energy, 0.11 kcal/mol:
CCTATCACGTGTGGTG

Relative binding free energy, 0.27 kcal/mol:
TGTAACACGTGAGTTT
AGATTCACGTGATGAT
TTGGTCACGTGTAACG
TTCGACACGTGAAGTG

Relative binding free energy, -0.03 kcal/mol:
GGTTGCACGTGCGTAT
AAGGGCACGTGTGCCT
GAAGGCACGTGGATGA
GATGGCACGTGTGGAC
ATGTACACGTGTTCGG
GTTAACACGTGGTATT

Relative binding free energy, 0.19 kcal/mol:
TTGTACACGTGATTTG
AGGAGCACGTGAGGGT

Relative binding free energy, 0.18 kcal/mol:
TGAGTCACGTGGATAG

Relative binding free energy, 0.1 kcal/mol:
CAGATCACGTGGTGGA
GGTCGCACGTGTTGGG
AGGTACACGTGGATGA

Relative binding free energy, 0.42 kcal/mol:
GTTGTCACGTGAATGA

Relative binding free energy, -0.24 kcal/mol:
TCGAGCACGTGGGGGA

Relative binding free energy, 0.14 kcal/mol:
TAGGGCACGTGAGTGC
TCGGTCACGTGGAGTT
GTCTACACGTGGTGGA
GGGGACACGTGTTTAA
TAGAGCACGTGAGTCG
ATGTGCACGTGAGGGA
ATAATCACGTGTTTGG

Relative binding free energy, 0.06 kcal/mol:
GTTGCCACGTGAGGGT
AGTTACACGTGGGTCG
GGATGCACGTGTTAGT
AAGGTCACGTGGAGGG

Relative binding free energy, -0.11 kcal/mol:
GTGAGCACGTGGAGTA
AAGTCCACGTGGAGGG
AGAGACACGTGGGGGG

Relative binding free energy, 0 kcal/mol:
TGATGCACGTGGGAGC
GATGACACGTGCGTTG
TGCATCACGTGGTGCT
TGCTGCACGTGTATTT
TGTTGCACGTGTCCTG

Relative binding free energy, -0.21 kcal/mol:
CGTGTCACGTGGGCGT
ATTGGCACGTGTAGGC

Relative binding free energy, 0.03 kcal/mol:
GCTGTCACGTGGGAGG
GAGTGCACGTGGCAGG
TGTTCCACGTGTCTGG
TTGAACACGTGTGGTC
CCGATCACGTGGGGTT
CTTTGCACGTGTGTAC
GTGGTCACGTGGCCGG
TTTATCACGTGGGACT
TTTAACACGTGTAGTG

Relative binding free energy, 0.16 kcal/mol:
TGGCTCACGTGGGAGG
ATGTGCACGTGAATAG
TGTGACACGTGAGCGT
GGGATCACGTGAGCGT
AAGCTCACGTGGTATG
GGTTACACGTGCTGGC
GTTGACACGTGGCTCG
CTGGTCACGTGAGCGG

Relative binding free energy, 0.38 kcal/mol:
ATCTTCACGTGATTGG
GGGTGCACGTGAGTTT
GGCTACACGTGAAGGT

Relative binding free energy, -0.17 kcal/mol:
ATAGGCACGTGCTGAG
TCAGGCACGTGCTGGG
ATGGACACGTGGGTAA
AGGTACACGTGGGACG

Relative binding free energy, -0.04 kcal/mol:
TGTGTCACGTGGCTTG
TTGATCACGTGTGCAG
GAGCGCACGTGGTAGT
CGGGTCACGTGTGCGA
GGTGTCACGTGCCGTT
ACGTGCACGTGTTGTC

Relative binding free energy, -0.27 kcal/mol:
TGACGCACGTGGTGGT

Relative binding free energy, -0.12 kcal/mol:
TTTAGCACGTGCTTGA
CTTGGCACGTGGTTAT
TGCAGCACGTGTATGT
AGGAGCACGTGTGGCT
TTTGACACGTGCGTGA
TGGCGCACGTGGAGTG

Relative binding free energy, -0.26 kcal/mol:
CAGTGCACGTGGGGGC

Relative binding free energy, 0.26 kcal/mol:
TTGTTCACGTGTCGTG
GATGACACGTGAAGTG
ATGGTCACGTGACTAT

Relative binding free energy, 0.2 kcal/mol:
GGTTACACGTGGTTTT
GTGGTCACGTGCGAAG
TTTAACACGTGTAAGT

Relative binding free energy, 0.23 kcal/mol:
CTTGTCACGTGATTTT
AAGTGCACGTGAGGCT
CTTTTCACGTGATTGT

Relative binding free energy, 0.22 kcal/mol:
TAGGACACGTGTGGAC
GGATCCACGTGTTATG
GGGCTCACGTGGTAGG
TTGGTCACGTGTCGTA

Relative binding free energy, -0.29 kcal/mol:
GTGGGCACGTGCGCGC

Relative binding free energy, -0.23 kcal/mol:
AACAGCACGTGGGTTG

Relative binding free energy, -0.1 kcal/mol:
GGGGGCACGTGGGGGC
TTGTGCACGTGTCCTT

Relative binding free energy, 0.25 kcal/mol:
AAATGCACGTGAAGGT
AGCTTCACGTGTTGGG
ATGTTCACGTGTAGAG

Relative binding free energy, 0.02 kcal/mol:
TTAGTCACGTGGCAAG
TGTATCACGTGGTTAT

Relative binding free energy, -0.2 kcal/mol:
GGTAACACGTGGGATA
TCGGGCACGTGGTGTT

Relative binding free energy, 0.24 kcal/mol:
CGATTCACGTGGATGT
CGGGTCACGTGTGAGG
GTCGGCACGTGAGTGG
GGGGACACGTGAGTAT

Relative binding free energy, -0.33 kcal/mol:
TGTTGCACGTGCCTGT

Relative binding free energy, 0.15 kcal/mol:
ACGGTCACGTGTGTGG
CGAGGCACGTGAATGT
TGTGTCACGTGTCGTT
GTGCTCACGTGGGGTG
CCAGTCACGTGAGGGT
GTTAACACGTGATGCT

Relative binding free energy, -0.02 kcal/mol:
GTGCGCACGTGGAGGT
TATGACACGTGTATTA
ATAAGCACGTGGTGAG
CTATACACGTGTGTTT
AGACACACGTGTGGTG
CGGGTCACGTGGGGTA
ATTTACACGTGGCAGT
ATTGGCACGTGTTAGA

Relative binding free energy, -0.15 kcal/mol:
TGTTGCACGTGGTTCG
ATGGGCACGTGTACGA
ATTGGCACGTGTGGCC
TTATGCACGTGGGACA
AAAGGCACGTGGGAGG
